The source gives no read counts; variants with many changes may rest on few reads.

First the molecules themselves.
B1: LINE1-mini (parent)
chain: GGCAGAGCUCAACACAGCGUGGCAAAGUGGCUGUGGCUAGACUGCC

Variants of B1 are the subject of this data set. Kind of data set: self-cleavage, relative activity (ratio to wild type); higher = more cleavage; in vitro, sequencing; the parent is a self-cleaving ribozyme.
GGCAGAGCUCAACACAGCGUUGCAAGGUGGCUGUGGAUAGACUGCC [G21U A26G C37A]: the self-cleavage was 0.06.

Turning to GGCAGAGCUCAACACAGCGUCGUAAAGUGGCUGUUGCUAGACUGCC [G21C C23U G35U], the self-cleavage was 0.19.

For GGCAGAGCUCAACACAGCGUCGGAAAAUGGCUGUGGCAAUACUGCC [G21C C23G G27A U38A G40U], the self-cleavage came out at 0.25.

For GGCAGAGCUCAACACAGCGUCGCAAAAUGGCUGAGGCUAGACUGCC [G21C G27A U34A], the self-cleavage was determined as 0.45.

On to GGCAGAGCUCAACACAGCGUUGCAACGUGGCUGUACCUAGACUGCC [G21U A26C G35A G36C], for which the self-cleavage is 0.09.

On to GGCAGAGCUCAACACAGCGUCGUAAAGUGGCUAUGGCUAGACUCCC [G21C C23U G33A G44C], for which the self-cleavage was 0.04.

With GGCAGAGCUCAACACAGCGUUGCUAAGUGGCUGUGCCUAGACUACC [G21U A24U G36C G44A], the self-cleavage was 0.09.

Turning to GGCAGAGCUCAACACAGCGUCGCAAAGUAACUGUGGCUAGACUGCC [G21C G29A G30A], the self-cleavage was found to be 0.61.

With GGCAGAGCUCAACACAGCGUUGCUAAGUGUCUGUGGCUAGAGUGCC [G21U A24U G30U C42G], the self-cleavage was 0.03.

On to GGCAGAGCUCAACACAGCGUCGCAUAGAGGUUGUGGCUAGACUGCC [G21C A25U U28A C31U], for which the self-cleavage was 0.3.

Take GGCAGAGCUCAACACAGCGUCGCAAAGUUGCUGGGGCUAGAGUGCC [G21C G29U U34G C42G]: the self-cleavage turned out to be 0.

For GGCAGAGCUCAACACAGCGUCGCAGAGUCGCUGUGGCUAGACUGCC [G21C A25G G29C], the self-cleavage was 0.09.

Turning to GGCAGAGCUCAACACAGCGUCGCAAAGUGGGUGUGGCUAGGCUGCC [G21C C31G A41G], the self-cleavage is 0.

Consider GGCAGAGCUCAACACAGCGUUGCAUAGUGGCUGUGGCUAGACUCCC [G21U A25U G44C], for which the self-cleavage was 1.

Turning to GGCAGAGCUCAACACAGCGUAGCAAAGAGGCUGUGGCUCGACUGCC [G21A U28A A39C], the self-cleavage is 0.04.

Consider GGCAGAGCUCAACACAGCGUAGCAAAGUGGCUGUGGCUAUACAGCC [G21A G40U U43A], for which the self-cleavage was determined as 0.18.

Turning to GGCAGAGCUCAACACAGCGUCGCAAAGUGCCUGUGGCUAGACCGCC [G21C G30C U43C], the self-cleavage stood at 0.13.

As to GGCAGAGCUCAACACAGCGUCGCAGAGAGGCUGUGGCUAGACUGCC [G21C A25G U28A], the self-cleavage came out at 0.32.

GGCAGAGCUCAACACAGCGUCUCAAAGUGGCUGUGGCUAGACUGCU [G21C G22U C46U]: the self-cleavage came to 0.48.

On to GGCAGAGCUCAACACAGCGUAGCAAAGUGGCGGUGGCUAGGCUGGC [G21A U32G A41G C45G], for which the self-cleavage was found to be 0.03.

With GGCAGAGCUCAACACAGCGUCGCAAAGUGGCUGUGACUAGACAGCC [G21C G36A U43A], the self-cleavage amounted to 0.05.

GGCAGAGCUCAACACAGCGUAGCAAAGUGGCUGUAGCUAGACUGGC [G21A G35A C45G]: the self-cleavage came out at 0.13.

Turning to GGCAGAGCUCAACACAGCGUCGCAAAGUGGAUGUGGCUAGACUGCG [G21C C31A C46G], the self-cleavage was determined as 0.06.

Regarding GGCAGAGCUCAACACAGCGUUGCACAGUGUCUGUGGCUAGACUGCC [G21U A25C G30U], the self-cleavage stood at 0.34.

Turning to GGCAGAGCUCAACACAGCGUCGUAAAGUGGCUGUGGCUAGUCUGCC [G21C C23U A41U], the self-cleavage is 0.7.

Regarding GGCAGAGCUCAACACAGCGUCGGAAAGUAGCUGUGACAAGACUGUC [G21C C23G G29A G36A U38A C45U], the self-cleavage is 0.03.

For the variant GGCAGAGCUCAACACAGCGUAGCAAAGGGACUGUGGCUAGACUGCC [G21A U28G G30A], the self-cleavage was found to be 0.81.

For GGCAGAGCUCAACACAGCGUCUCAAAGUGGCUGUGGCUCGAGUGCC [G21C G22U A39C C42G], the self-cleavage came out at 0.02.

Turning to GGCAGAGCUCAACACAGCGUCGCACAGUGACUGUGGCUAGACUGCC [G21C A25C G30A], the self-cleavage is 2.

As for GGCAGAGCUCAACACAGCGUCGCAAAGUGGCUGUGACUAGAAUGCC [G21C G36A C42A], the self-cleavage worked out at 0.1.

For GGCAGAGCUCAACACAGCGUAGCAAAGUGGCUGUGGCCAGUCUGCC [G21A U38C A41U], the self-cleavage came to 0.79.

Take GGCAGAGCUCAACACAGCGUCGCAAAGUGGCUGUGGUGAGACUGCC [G21C C37U U38G]: the self-cleavage amounted to 0.01.

As for GGCAGAGCUCAACACAGCGUAGCAAAGUGGCUGAGGCUACACUGCC [G21A U34A G40C], the self-cleavage amounted to 0.01.

On to GGCAGAGCUCAACACAGCGUCGCUAACUGGCUGUGGAUAGACUUCC [G21C A24U G27C C37A G44U], for which the self-cleavage came to 0.14.

Regarding GGCAGAGCUCAACACAGCGUAGCAAAGUGGCUGUGCCUGGACUGCC [G21A G36C A39G], the self-cleavage came out at 0.07.

In the case of GGCAGAGCUCAACACAGCGUCGCAUAGUGCCUGUGGCUGGACUGCC [G21C A25U G30C A39G], the self-cleavage worked out at 0.06.

GGCAGAGCUCAACACAGCGUCGCAAAGUGGUUGUGGCUAGAUUGCC [G21C C31U C42U]: the self-cleavage was found to be 0.25.

Turning to GGCAGAGCUCAACACAGCGUCGAAAACUGGCUGUGGCUAGACUGCC [G21C C23A G27C], the self-cleavage was found to be 2.43.

In the case of GGCAGAGCUCAACACAGCGUAGCAAAGUGGCUGAGGGUUGACUUCC [G21A U34A C37G A39U G44U], the self-cleavage worked out at 0.03.

Turning to GGCAGAGCUCAACACAGCGUAGCAAAGUGGCUCAGGCUAGAGUGCC [G21A G33C U34A C42G], the self-cleavage stood at 0.01.

Take GGCAGAGCUCAACACAGCGUUGCAGAGUGGCUGUGGAUAGGCUGCC [G21U A25G C37A A41G]: the self-cleavage was 0.04.

For GGCAGAGCUCAACACAGCGUCGCAAAGUGGCUUUGGCUGGACUGCC [G21C G33U A39G], the self-cleavage stood at 0.08.

For GGCAGAGCUCAACACAGCGUCUCAACGUGGCUGUGGCUAGACUGCC [G21C G22U A26C], the self-cleavage stood at 0.17.

For the variant GGCAGAGCUCAACACAGCGUCGCAAAGUGGCUCUGGCUAAACUGCC [G21C G33C G40A], the self-cleavage is 0.04.

GGCAGAGCUCAACACAGCGUCGCAAAGUGGCGGUGGCUAGGCUGCC [G21C U32G A41G]: the self-cleavage was 0.57.

With GGCAGAGCUCAACACAGCGUCGCAAAUUGGCUGUGGCUCGGCUGCC [G21C G27U A39C A41G], the self-cleavage amounted to 0.05.

With GGCAGAGCUCAACACAGCGUUGCACUGUGGCUGUGGCUAGACUGCC [G21U A25C A26U], the self-cleavage is 0.52.

Consider GGCAGAGCUCAACACAGCGUCGGUGAGUGGCUGUGGCUAGACUGCC [G21C C23G A24U A25G], for which the self-cleavage was 0.12.

For GGCAGAGCUCAACACAGCGUUGCGAAGUGGCUGUGGGUAGACUGCC [G21U A24G C37G], the self-cleavage was determined as 0.07.

Take GGCAGAGCUCAACACAGCGUAGCAAAGUGGCUAUGGCUACACUGCC [G21A G33A G40C]: the self-cleavage stood at 0.07.

With GGCAGAGCUCAACACAGCGUAGCAAAGUGGCUAUGGCUAUACUGCC [G21A G33A G40U], the self-cleavage worked out at 0.02.

Regarding GGCAGAGCUCAACACAGCGUAGCAAAGUGGCUGUGACUAGACUGCA [G21A G36A C46A], the self-cleavage amounted to 0.19.

In the case of GGCAGAGCUCAACACAGCGUCGCAAACGGGCUGCGGCAAGACUGCC [G21C G27C U28G U34C U38A], the self-cleavage turned out to be 0.58.

For the variant GGCAGAGCUCAACACAGCGUCGCAAUCUGGCUGUGGCAAGACUGCC [G21C A26U G27C U38A], the self-cleavage worked out at 0.64.

As for GGCAGAGCUCAACACAGCGUCGCAAGGUUGCUGUGGCUAGACUGCC [G21C A26G G29U], the self-cleavage was found to be 0.1.

On to GGCAGAGCUCAACACAGCGUCGCAAAGUGGCUGUGGCAACACUGCC [G21C U38A G40C], for which the self-cleavage was 0.13.

(Values after the RNAGym collection of RNA variant scans (doi:10.7554/elife.90254).)
